Results taken from the RNAGym collection of RNA variant scans (doi:10.1093/nar/gkz1192).
The source gives no read counts; variants with many changes may rest on few reads.

B1: CPEB3 Ribozyme (parent)
chain: UAACAGGGGGCCACAGCAGAAGCGUUCACGUCGCAGCCCCUGUCAGAUUCUGGUGAAUCUGCGAAUUCUGCUGUAUAUCUC

Variants of: B1
Test: self-cleavage, relative activity (ratio to wild type); higher = more cleavage; in vitro, sequencing
Method in brief: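 CPEB3 self-cleaving ribozyme mutant libraries were made by rounds of error-prone PCR, barcoded, and transcribed in vitro with T7 RNA polymerase for 5 hours at 37°C. Cleavage occurred during transcription and a 15 min DNase I step before EDTA stop. RNAs were reverse transcribed with template switching and Illumina-sequenced, with DNA sequencing mapping barcodes to variants. Relative activity is the variant's cleaved/total read fraction divided by wild type's (minimum 5 reads), averaged across three batches.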

Variant	self-cleavage
A15G A20U A47G U60C	0.1
A15G A21G C32U U41C U67C	0.14
A15C U49C U72C	0.21
A15G A20G U25C U41A	0.34
A15G A20G A21G U41A U49C	0.06
A15G A18U U80C	0.23
A15G A20G C79A	0.64
A15G A18G U48A C50U	0.08
A15G A20G A57U A64G	0.18
A15G A21G C29U A65G U72C A77C	0.05
A15G A18U U26C C62U G73A	0.42
A15G A21U U41A	0.1
A15G A18U A64G	0.5
A15G A18G U41C	0.4
A15G A18G U25C U31C A64U	0.35
A15G A21U A28U U78A	0.11
A15G A18U U54A	0.4
A15C A35C C39G U74C	0.54
A15C A28C A35C U41C U72A	0.12
A15G A18G G33A U78A	0.31
A15C A47U U51C U66C U67A	0.13
A15C U43C A57G	0.42
A15C A21G G24U U54C U72A U78C	0.05
A15G A21G A28G G33A U49C U51A U72C	0.04

Variant	self-cleavage
A15C U26C U43C U48A	0.07
A15C U25G U67C	0.08
A15G A18U U49C U78C	0.06
A15G A21G U48C G55A	0.32
A15G A18G C27G U48A U58A U78C	0.22
A15G A21G U60C	0.11
A15G A20G U26A A45U U60C	0.09
A15G A21G A35G C40U A56G	0.13
A15C U58A A77U	0.42
A15G A18G A20U A21U U31A U51C U58C	0.04
A15G A18U U25C	0.07
A15G A18G U41C A47U U66C C71U	0.17
A15G A18G C62U	0.1
A15G A21U C34U U66C	0.07
A15G A18C U51C A65C	0.06
A15C U43C U67A	0.19
A15C C34G C50A A65C U69C	0.12
A15G A21G U26A A28G U43C A65G	0
A15C U66C U69A	0.12
A15G A20G C37U U78A	0.33
A15G A20G U26A U41C U60C	0
A15G A18G C39G	0.39
A15G A18G U31C U80C	0.38
A15C U31G U43G U51A	0.24

Variant	self-cleavage
A15G A18G U49A	0.21
A15G A21G U31A C38G U58C	0.13
A15G A20G U58C U72G	0.11
A15G A20U G30U U80C	0.2
A15G A21G A28C U60C U80C	0.33
A15C A35G A45U G53U A77U U78A	0.77
A15G A20G C29U U54C A64U	0.17
A15G A21G C39G	0.09
A15G A18G A28G G61A U67C	0.2
A15G A20G U25C U31A U48C U74A	0.55
A15G A20G A21C A28C	0.04
A15C A21G U41A U60C U67A U76C	0.07
A15G A20U A21G U58C U60A	0.2
A15G A21G A65G U69C	0.17
A15G A20G U31C	0.51
A15C U43A A45U	0.73
A15G A18U C38U	0.41
A15C U51A U80C	1.09
A15G A21C C39U U43A U80C	0.07
A15G A18G G33C	0.13
A15G A21C C23A U41C	0.37
A15G A20U U54C U69C U80C	0.16
A15C U26A A45U	0.33
A15G A20G U26C A56G U78C	0.11

Variant	self-cleavage
A15G A18U U26A U48A U66C	0.04
A15G A18U U43A A47G U67A U80A	0.1
A15C A28U C37A U49C G52C U80C	0.08
A15G A21G A28G G30C G55C	0.08
A15G A21G U25C C38G U78C	0.06
A15C U26C U48C	0.4
A15C G24C U26C G46U A65G U66C	0.05
A15G A20U G24U U43A U60C C62U A64U	0.04
A15G A21G A57G	0.22
A15C G16U G33A U41C U43C U72C	0.04
A15G A21G C23U A45G U51C	0.06
A15C U49C C79A	1.19
A15G A18G A20G C32A U43C	0.04
A15G A21G U26A U48C G63U	0.48
A15G A18G U51C	0.1
A15G A18U G19A	0.28
A15G A18G U49C U72C C79U	0.41
A15C C38U U49C	0.24
A15C A28U U51C U67C	0.11
A15G A20G U26A U51A C68U U72C	0.49
A15G A20U U43A	0.25
A15G A21C U25C A28U A45G	0.4
A15C U41C U49A	0.38
A15C C17U A45G A64G	0.24

Variant	self-cleavage
A15G A18U C59U U78C	0.48
A15G A18U A20G U25C U58C	0.45
A15G A20U C34A U48C G53A	0.06
A15C A21G U43A	0.51
A15G A18G U78A	0.09
A15G A18G A21G C40U U49G	0.06
A15G A18G C32A C38A G70C U80C	0.07
A15G A18U U51C U54C U69C	0.35
A15G A18U C29A A35G A75G	0.25
A15C U67C U72C	0.1
A15G A20G A28G	0.5
A15G A21G A28G A57G U60A	0.1
A15C U26C U41A A64U C79U	0.08
A15G A21G C34U	0.31
A15G A20C A35U A64U U66C U80A	0.07
A15G A21G A56G A65U	0.17
A15G A21G G30A A56U U78C	0.07
A15C A35G U41C U69A	0.71
A15G A20U G53A U74C	0.19
A15G A18C G19A U41A A64C	0.17
A15G A18U A35G U41C U72C	0.24
A15G A18U A56G	0.36
A15C A47U U51A U66C	0.2
A15G A18U U66C	0.16

Variant	self-cleavage
A15C U26C A35G U43A U76A	0.14
A15G A21G A65G C68U G70A U72A	0.18
A15C U41A A45G A64G	0.06
A15G A18G A21G A57G U69A U72C	0.27
A15C A35G A45G U51A A64G	1.08
A15G A21G U80C	0.69
A15G A18G A20U G24C C38U	0.12
A15G A21G U25A C38U A56G	0.13
A15G A18G A75U U78A	0.2
A15G A20G U25C U31G	0
A15G A20G G52A U67A	0.36
A15G A18U U26C	0.2
A15G A20U U26G A56G U66A	0.08
A15G A21G U43A U72A	0.2
A15G A20G U31C U66C U78G	0.15
A15C U26C U48C A65C	0.04
A15C C32U U54G A75U	0.15
A15C G19A A20U A47G A57U U72C	0.01
A15G A21C U43G A45G U60A	0.09
A15G A20G U26A U41C U43A U48C	0.05
A15G A20G U48C U60C	0.31
A15G A21G U48C U58C	0.07
A15G A18G U54C	0.29
A15G A18U A21C A45U U66C	0.02

Variant	self-cleavage
A15G A20U G33A	0.18
A15G A18C U31A U58C	0.07
A15G A21G C62U A65U	0.12
A15G A20G C40U U48C A64G C71U	0.05
A15G A18G A20U C38U C68A	0.11
A15G A21G C40U U54A	0.44
A15G A21U U48A A77C	0.07
A15G A21G U25C U67C U78C	0.32
A15G A21G C37U A45G U51C U54C A64G	0
A15C A21G U41A C50A	0.08
A15C C17G C27U C32U U43C U72C	0.09
A15G A20G A56G	0.23
A15C U25C A57U U60C U80A	0.17
A15C U72C G73A	1.28
A15G A21U A35G U41A U58A U67C	0.06
A15G A21G U78C	0.57
A15C C29G U51C	0.23
A15G A21G U26C G53A A57G	0.28
A15C A47U U54A A57U G73A	1
A15G A18G U25C G33C C50A U72C	0.04
A15G A20U U41A U49G U51C	0.39
A15G A20U A35G U51A U54C U72G	0.1
A15C A47G A56G U74C A75U	1.14
